B1: TPR 5TU (parent)
chain: GGAUCUUCUCGAUCUAACAAAAAAGACAAAUCUGCCACAAAGCUUGAGAGCAUCUUCGGAUGCAGAGGCGGCAGCCUUCGGUGGCGCGAUAGCGCCAACGUUCUCAACUAUGACACGCAAAACGCGUGCUCCGUUGAAUGGAGUUUAUCAUG

Variants at the background level are over-represented here.

The series covers variants of B1. In words: polymerase ribozyme fitness, log enrichment relative to wild type (log ratio); higher = more active; in vitro selection for triplet polymerase activity. Put shortly:
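Mutant libraries for each subunit of a heterodimeric triplet polymerase ribozyme were made by PCR and then transcribed. Each library underwent one round of in vitro selection in triplicate: annealing with a biotinylated primer, the partner subunit and triplets, frozen incubation at −7 °C, gel excision of extended constructs, streptavidin-bead capture and RT-PCR. Input and output libraries were Illumina-sequenced, and only genotypes with ≥10 input reads and ≥1 read per output were kept. Fitness is the logarithm, base 2, of genotype enrichment over wild-type enrichment, computed from inverse-variance-weighted replicate averages.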
As to A30U A49C G83U G124A U151A, the “polymerase ribozyme fitness (log ratio)” value was no more than -4.2.
In the case of A29U C114U C123G, the “polymerase ribozyme fitness (log ratio)” value was no more than -4.2.
Turning to A30G U33A C51A G68C C79U G92A C129A, the “polymerase ribozyme fitness (log ratio)” value was no more than -4.2.
As for A30C U55A U82G C99G A110C, the figure is no more than -4.2; as for A30G G42A U55G G65A C76G C87G A106U G143A A147C, no more than -4.2; as for A30C C32G A41C A52G C87U A113C, no more than -4.2.
The same measure for A30C A37U A60U G88U A122U C125G: no more than -4.2.
With A30C C79U A91G C114U G136C, the “polymerase ribozyme fitness (log ratio)” value was no more than -4.2.
As for A30G A41U A47G G88C, the figure is no more than -4.2; as for A29U G34C A47U C57A, no more than -4.2; as for A30G A52G G58C A91U G92C C93A U145A, no more than -4.2.
As for A29U U45A G94C C105A A113U U130G U135G, the “polymerase ribozyme fitness (log ratio)” value is no more than -4.2.
Turning to A30C G80U C87U, the “polymerase ribozyme fitness (log ratio)” value is no more than -4.2.
The same measure for A30U A60G U61C G84C A107G A122U: no more than -4.2; for A29U C95U U130G: no more than -4.2.
The same measure for A30C G71C G141U: no more than -4.2; for A30G C54G G74U: no more than -4.2; for A30U C51U U55A: no more than -4.2.
Take A29U G65A C87A A91C U109G U146A A150G: the “polymerase ribozyme fitness (log ratio)” value was no more than -4.2.
As to A30C U45A A47G A49G C95U C99G U144C, the “polymerase ribozyme fitness (log ratio)” value was no more than -4.2.
A30G C93G U104A: the “polymerase ribozyme fitness (log ratio)” value is no more than -4.2.
As for A29U U78A C118U A142C, the figure is no more than -4.2; as for A30U C54A G83C G136C, no more than -4.2; as for A29U U31A U56G A66G C96U C105A A138U, no more than -4.2.
As to A30U C35G C54U G58C C85A A91C G94C A142C U146G, the “polymerase ribozyme fitness (log ratio)” value is no more than -4.2.
As to A30C G74A A91U C108G C114U U148A A150U, the “polymerase ribozyme fitness (log ratio)” value was no more than -4.2.
As for A30U A73G C79U G83C G84A C85U A137G G143U, the figure is no more than -4.2.
As for A30G C35G G59U A113C C131A, the figure is no more than -4.2.
For the variant A30U A91U U104G, the “polymerase ribozyme fitness (log ratio)” value is no more than -4.2.
As for A30U C43U G58A U77G C93G, the figure is no more than -4.2; as for A30G C105U C116U U134G, no more than -4.2.
As for A29U U53A G83A C93G, the figure is no more than -4.2.
As to A30U C87G, the “polymerase ribozyme fitness (log ratio)” value was no more than -4.2.
As for A29U C76A C85A C108U C116A, the figure is no more than -4.2; as for A30G C38U A73G G141A, no more than -4.2; as for A29U U53G A91U U127G, no more than -4.2.
The same measure for A30C U44C C85U A89U U135A: no more than -4.2; for A30C A49U C54A G58C G59A G143C: no more than -4.2.
With A30G U33A C93A, the “polymerase ribozyme fitness (log ratio)” value was no more than -4.2.
Regarding A30C C87U U104G U111C, the “polymerase ribozyme fitness (log ratio)” value is no more than -4.2.
Regarding A30C A41G C51U U55A C85G, the “polymerase ribozyme fitness (log ratio)” value was no more than -4.2.
A29U U61A G65U: the “polymerase ribozyme fitness (log ratio)” value was no more than -4.2.
On to A30G C54U C76G A91C, for which the “polymerase ribozyme fitness (log ratio)” value is no more than -4.2.
The same measure for A30U C38U C75U: no more than -4.2; for A30G G46A A49C G58C G88A U104A U130G G141A: no more than -4.2.
The same measure for A30G A91C: no more than -4.2; for A30G A91G: no more than -4.2; for A30C C93G C116G G124A C129U: no more than -4.2.
On to A30U G48U G81A G86U, for which the “polymerase ribozyme fitness (log ratio)” value is no more than -4.2.
For A30U C35U C87A A106G U145A, the “polymerase ribozyme fitness (log ratio)” value is no more than -4.2.
On to A30G C32G C51U U53A C54U C57G C87G C105A U151G, for which the “polymerase ribozyme fitness (log ratio)” value is no more than -4.2.
In the case of A30G G46C G50U C57U C118G, the “polymerase ribozyme fitness (log ratio)” value was no more than -4.2.
In the case of A30G C75U U77A G88C C123G, the “polymerase ribozyme fitness (log ratio)” value was no more than -4.2.
With A30G U61G A64C C72U C79G G88C A142G, the “polymerase ribozyme fitness (log ratio)” value is no more than -4.2.
As for A30G C38G C57A A66C C95A, the figure is no more than -4.2; as for A30G A41U C69G C76U G94U U102G U130C, no more than -4.2.
The same measure for A30G U90C: no more than -4.2; for A29U G88C A106U: no more than -4.2; for A29U U61A G86A C99U U109C: no more than -4.2.
In the case of A30C A89U C95A A98G A107C, the “polymerase ribozyme fitness (log ratio)” value is no more than -4.2.
As to A29U U33G U53C C85G C99U, the “polymerase ribozyme fitness (log ratio)” value was no more than -4.2.
Take A30C G84A G100A U130G G141U: the “polymerase ribozyme fitness (log ratio)” value was no more than -4.2.
As for A29U U33G C38A C57G, the figure is no more than -4.2.
For A29U U78G C79U G83C A98G G124U G141C, the “polymerase ribozyme fitness (log ratio)” value was no more than -4.2.
The same measure for A30G A47G G50A G59A G86C A147C: no more than -4.2; for A30G G67C C125A: no more than -4.2.
As for A29U G83A C93A G152U, the “polymerase ribozyme fitness (log ratio)” value was no more than -4.2.
As for A30U C54A U55G G86C C105A A119G G136U A142U, the figure is no more than -4.2; as for A30U G42A U55G C69A G126U A142C, no more than -4.2; as for A30G C79U G124U U135A, no more than -4.2.
On to A30U A97C C108U A113U C129G, for which the “polymerase ribozyme fitness (log ratio)” value is no more than -4.2.
As for A30G A47G U56A G71C G117U A150U, the “polymerase ribozyme fitness (log ratio)” value is no more than -4.2.
A29U G92C U102C C116U: the “polymerase ribozyme fitness (log ratio)” value is no more than -4.2.
In the case of A30U C51G G81C C85A C93A A110U G117A G133A, the “polymerase ribozyme fitness (log ratio)” value is no more than -4.2.
The same measure for A29U C132U: no more than -4.2; for A30G C95A U104A C118U C131A A138U G141A: no more than -4.2.
Take A30U C76A G88A U90C A98U C132U: the “polymerase ribozyme fitness (log ratio)” value is no more than -4.2.
The same measure for A30U G42A C43U A52G: no more than -4.2; for A30C U53A U78G G84U A137G: no more than -4.2; for A30C G34U U55A C93A C96A A115U G124U U135A G143C: no more than -4.2.
As for A29U C93G, the figure is no more than -4.2.
As to A30G U101A G124U C129A, the “polymerase ribozyme fitness (log ratio)” value is no more than -4.2.
Consider A30U A49G C93A G117A, for which the “polymerase ribozyme fitness (log ratio)” value is no more than -4.2.
As for A30U G48C C51A C76A A107U A115C C116U G143A, the figure is no more than -4.2.

The values are drawn from the RNAGym collection of RNA variant scans (doi:10.1073/pnas.2313332121).
